# Test results: the supplement of paper PMC8728848
# The list shows a part of the results.
# How the values were obtained:
# Experiment in all cases: glycan array binding signal (z-score within array); higher = stronger binding
# Conditions in all cases: glycan notation: IUPAC condensed, linker removed
# [1] = molecular target: Fuc(a1-2)Gal(b1-4)[Fuc(a1-3)]GlcNAc
# How it was run: (§1)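 From the Consortium for Functional Glycomics database, 3228 arrays were curated, keeping only those whose protein sequence was available. Binding is given as a within-array Z-score averaged across arrays sharing a protein sequence and across linkers. Negative Z-scores can be read as non-binding.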
# [2] = molecular target: Fuc(a1-2)Gal(b1-4)[Fuc(a1-3)]GlcNAc(b1-2)Man(a1-3)[Fuc(a1-2)Gal(b1-4)[Fuc(a1-3)]GlcNAc(b1-2)Man(a1-6)]Man(b1-4)GlcNAc(b1-4)[Fuc(a1-6)]GlcNAc
# How it was run: as §1
# [3] = molecular target: Fuc(a1-2)Gal(b1-4)[Fuc(a1-3)]GlcNAc(b1-2)[Fuc(a1-2)Gal(b1-4)[Fuc(a1-3)]GlcNAc(b1-4)]Man(a1-3)[Fuc(a1-2)Gal(b1-4)[Fuc(a1-3)]GlcNAc(b1-2)Man(a1-6)]Man(b1-4)GlcNAc(b1-4)GlcNAc
# How it was run: as §1
# [4] = molecular target: Fuc(a1-2)Gal(b1-4)[Fuc(a1-3)]GlcNAc(b1-3)Gal(b1-4)[Fuc(a1-3)]GlcNAc
# How it was run: as §1
# [5] = molecular target: Fuc(a1-2)Gal(b1-4)[Fuc(a1-3)]GlcNAc(b1-3)Gal(b1-4)[Fuc(a1-3)]GlcNAc(b1-3)Gal(b1-4)[Fuc(a1-3)]GlcNAc
# How it was run: as §1
# [6] = molecular target: Fuc(a1-2)Gal(b1-4)[Fuc(a1-3)]GlcNAc(b1-3)GalNAc
# How it was run: as §1
# [7] = molecular target: Fuc(a1-2)Gal(b1-4)[Fuc(a1-3)]GlcNAc(b1-3)[Neu5Ac(a2-6)Gal(b1-4)GlcNAc(b1-6)]Gal(b1-4)Glc
# How it was run: as §1
# [8] = molecular target: Fuc(a1-2)Gal3S(b1-4)GlcNAc
# How it was run: as §1
# [9] = molecular target: Fuc(a1-2)Gal6S(b1-3)GlcNAc
# How it was run: as §1
# [10] = molecular target: Fuc(a1-2)Gal6S(b1-3)GlcNAc6S
# How it was run: as §1
# Fuc(a1-2)Gal6S(b1-4)Glc = molecular target: Fuc(a1-2)Gal6S(b1-4)Glc
# How it was run: as §1
# [11] = molecular target: Fuc(a1-2)Gal6S(b1-4)Glc6S
# How it was run: as §1
# Fuc(a1-2)[Gal(a1-3)]Gal = molecular target: Fuc(a1-2)[Gal(a1-3)]Gal
# How it was run: as §1
# [12] = molecular target: Fuc(a1-2)[Gal(a1-3)]Gal(b1-3)GalNAc
# How it was run: as §1
# [13] = molecular target: Fuc(a1-2)[Gal(a1-3)]Gal(b1-3)GalNAc(b1-3)Gal(a1-4)Gal(b1-4)Glc
# How it was run: as §1
# [14] = molecular target: Fuc(a1-2)[Gal(a1-3)]Gal(b1-3)GlcNAc
# How it was run: as §1
# [15] = molecular target: Fuc(a1-2)[Gal(a1-3)]Gal(b1-3)GlcNAc(b1-2)Man(a1-3)[Fuc(a1-2)[Gal(a1-3)]Gal(b1-3)GlcNAc(b1-2)Man(a1-6)]Man(b1-4)GlcNAc(b1-4)GlcNAc
# How it was run: as §1
# [16] = molecular target: Fuc(a1-2)[Gal(a1-3)]Gal(b1-3)GlcNAc(b1-2)Man(a1-3)[Fuc(a1-2)[Gal(a1-3)]Gal(b1-3)GlcNAc(b1-2)Man(a1-6)]Man(b1-4)GlcNAc(b1-4)[Fuc(a1-6)]GlcNAc
# How it was run: as §1
# [17] = molecular target: Fuc(a1-2)[Gal(a1-3)]Gal(b1-3)GlcNAc(b1-3)GalNAc
# How it was run: as §1
# [18] = molecular target: Fuc(a1-2)[Gal(a1-3)]Gal(b1-3)GlcNAc(b1-6)GalNAc
# How it was run: as §1
# [19] = molecular target: Fuc(a1-2)[Gal(a1-3)]Gal(b1-4)Glc
# How it was run: as §1
# [20] = molecular target: Fuc(a1-2)[Gal(a1-3)]Gal(b1-4)GlcNAc
# How it was run: as §1
# [21] = molecular target: Fuc(a1-2)[Gal(a1-3)]Gal(b1-4)GlcNAc(b1-2)Man
# How it was run: as §1
# [22] = molecular target: Fuc(a1-2)[Gal(a1-3)]Gal(b1-4)GlcNAc(b1-2)Man(a1-3)[Fuc(a1-2)[Gal(a1-3)]Gal(b1-4)GlcNAc(b1-2)Man(a1-6)]Man(b1-4)GlcNAc(b1-4)GlcNAc
# How it was run: as §1
# [23] = molecular target: Fuc(a1-2)[Gal(a1-3)]Gal(b1-4)GlcNAc(b1-2)Man(a1-3)[Fuc(a1-2)[Gal(a1-3)]Gal(b1-4)GlcNAc(b1-2)Man(a1-6)]Man(b1-4)GlcNAc(b1-4)[Fuc(a1-6)]GlcNAc
# How it was run: as §1
# [24] = molecular target: Fuc(a1-2)[Gal(a1-3)]Gal(b1-4)GlcNAc(b1-3)GalNAc
# How it was run: as §1
# [25] = molecular target: Fuc(a1-2)[Gal(a1-3)]Gal(b1-4)GlcNAc(b1-3)[Fuc(a1-2)[Gal(a1-3)]Gal(b1-4)GlcNAc(b1-6)]GalNAc
# How it was run: as §1
# [26] = molecular target: Fuc(a1-2)[Gal(a1-3)]Gal(b1-4)GlcNAc(b1-6)GalNAc
# How it was run: as §1
# [27] = molecular target: Fuc(a1-2)[Gal(a1-3)]Gal(b1-4)[Fuc(a1-3)]Glc
# How it was run: as §1
# [28] = molecular target: Fuc(a1-2)[Gal(a1-3)]Gal(b1-4)[Fuc(a1-3)]GlcNAc
# How it was run: as §1
# [29] = molecular target: Fuc(a1-2)[Gal(a1-3)]Gal(b1-4)[Fuc(a1-3)]GlcNAc(b1-3)GalNAc
# How it was run: as §1
# [30] = molecular target: Fuc(a1-2)[Gal(a1-4)]Gal(b1-4)GlcNAc
# How it was run: as §1
# [31] = molecular target: Fuc(a1-2)[GalNAc(a1-3)]Gal
# How it was run: as §1
# [32] = molecular target: Fuc(a1-2)[GalNAc(a1-3)]Gal(b1-3)GalNAc(a1-3)[Fuc(a1-2)]Gal(b1-4)GlcNAc
# How it was run: as §1
# [33] = molecular target: Fuc(a1-2)[GalNAc(a1-3)]Gal(b1-3)GalNAc(b1-3)Gal(a1-4)Gal(b1-4)Glc
# How it was run: as §1
# [34] = molecular target: Fuc(a1-2)[GalNAc(a1-3)]Gal(b1-3)GlcNAc
# How it was run: as §1
# [35] = molecular target: Fuc(a1-2)[GalNAc(a1-3)]Gal(b1-3)GlcNAc(b1-2)Man(a1-3)[Fuc(a1-2)[GalNAc(a1-3)]Gal(b1-3)GlcNAc(b1-2)Man(a1-6)]Man(b1-4)GlcNAc(b1-4)GlcNAc
# How it was run: as §1
# [36] = molecular target: Fuc(a1-2)[GalNAc(a1-3)]Gal(b1-3)GlcNAc(b1-2)Man(a1-3)[Fuc(a1-2)[GalNAc(a1-3)]Gal(b1-3)GlcNAc(b1-2)Man(a1-6)]Man(b1-4)GlcNAc(b1-4)[Fuc(a1-6)]GlcNAc
# How it was run: as §1
binder,measurement,setting,value
"SSP1 (Sclerotinia sclerotiorum), XP_001584968 (protein) MGSSHHHHHHSSGLVPRGSHMSLLTTELACTSAPDQVLHLFFQDGQNILEARSPDGGNVWTTQDTIIAKDGDYNGSSMTCYYVDKDANFDNQPSIHLLYMNKDKQLTEKVKRMKGDNPIWEDAKVPDEVRKGPEQYSKLTSGSFNQGTGWNPNGSQWAYFSASKDGKMGIVEIRRTPKDPWHTETILEEKWGDELPGTALACVIGNGKIRVFLQHHDYSIILYENQNNTWHDRGTFIPKDKVQATTPLACTMTKDGSVHLFYVSKSNKIIHCTDGKKEEELINFFPGSKLGATSVENKITLFFRNLNPVNEVGTLENENGSWKHGTTVIPA",glycan array binding signal (z-score),[1],-0.385
same,glycan array binding signal (z-score),[2],-0.054
same,glycan array binding signal (z-score),[3],0.008
same,glycan array binding signal (z-score),[4],-0.305
same,glycan array binding signal (z-score),[5],0.321
same,glycan array binding signal (z-score),[6],-0.39
same,glycan array binding signal (z-score),[7],-0.218
same,glycan array binding signal (z-score),[8],-0.468
same,glycan array binding signal (z-score),[9],-0.225
same,glycan array binding signal (z-score),[10],0.182
same,glycan array binding signal (z-score),Fuc(a1-2)Gal6S(b1-4)Glc,-0.629
same,glycan array binding signal (z-score),[11],0.002
same,glycan array binding signal (z-score),Fuc(a1-2)[Gal(a1-3)]Gal,-0.069
same,glycan array binding signal (z-score),[12],-0.001
same,glycan array binding signal (z-score),[13],-0.655
same,glycan array binding signal (z-score),[14],0.084
same,glycan array binding signal (z-score),[15],0.27
same,glycan array binding signal (z-score),[16],0.036
same,glycan array binding signal (z-score),[17],-0.411
same,glycan array binding signal (z-score),[18],7.05
same,glycan array binding signal (z-score),[19],-0.256
same,glycan array binding signal (z-score),[20],0.187
same,glycan array binding signal (z-score),[21],-0.358
same,glycan array binding signal (z-score),[22],-0.463
same,glycan array binding signal (z-score),[23],0.111
same,glycan array binding signal (z-score),[24],-0.1
same,glycan array binding signal (z-score),[25],0.312
same,glycan array binding signal (z-score),[26],-0.15
same,glycan array binding signal (z-score),[27],-0.518
same,glycan array binding signal (z-score),[28],-0.327
same,glycan array binding signal (z-score),[29],-0.518
same,glycan array binding signal (z-score),[30],0.208
same,glycan array binding signal (z-score),[31],0.125
same,glycan array binding signal (z-score),[32],-0.669
same,glycan array binding signal (z-score),[33],-0.154
same,glycan array binding signal (z-score),[34],-0.089
same,glycan array binding signal (z-score),[35],-0.434
same,glycan array binding signal (z-score),[36],0.012
